Consider 11 molecules from publication PMC10333293, “Membrane recruitment of the polarity protein Scribble by the cell adhesion receptor TMIGD1” (Communications Biology, 2023).

Chains of the proteins cited; added tags and fusions are not shown.
UniProt Q96RT1: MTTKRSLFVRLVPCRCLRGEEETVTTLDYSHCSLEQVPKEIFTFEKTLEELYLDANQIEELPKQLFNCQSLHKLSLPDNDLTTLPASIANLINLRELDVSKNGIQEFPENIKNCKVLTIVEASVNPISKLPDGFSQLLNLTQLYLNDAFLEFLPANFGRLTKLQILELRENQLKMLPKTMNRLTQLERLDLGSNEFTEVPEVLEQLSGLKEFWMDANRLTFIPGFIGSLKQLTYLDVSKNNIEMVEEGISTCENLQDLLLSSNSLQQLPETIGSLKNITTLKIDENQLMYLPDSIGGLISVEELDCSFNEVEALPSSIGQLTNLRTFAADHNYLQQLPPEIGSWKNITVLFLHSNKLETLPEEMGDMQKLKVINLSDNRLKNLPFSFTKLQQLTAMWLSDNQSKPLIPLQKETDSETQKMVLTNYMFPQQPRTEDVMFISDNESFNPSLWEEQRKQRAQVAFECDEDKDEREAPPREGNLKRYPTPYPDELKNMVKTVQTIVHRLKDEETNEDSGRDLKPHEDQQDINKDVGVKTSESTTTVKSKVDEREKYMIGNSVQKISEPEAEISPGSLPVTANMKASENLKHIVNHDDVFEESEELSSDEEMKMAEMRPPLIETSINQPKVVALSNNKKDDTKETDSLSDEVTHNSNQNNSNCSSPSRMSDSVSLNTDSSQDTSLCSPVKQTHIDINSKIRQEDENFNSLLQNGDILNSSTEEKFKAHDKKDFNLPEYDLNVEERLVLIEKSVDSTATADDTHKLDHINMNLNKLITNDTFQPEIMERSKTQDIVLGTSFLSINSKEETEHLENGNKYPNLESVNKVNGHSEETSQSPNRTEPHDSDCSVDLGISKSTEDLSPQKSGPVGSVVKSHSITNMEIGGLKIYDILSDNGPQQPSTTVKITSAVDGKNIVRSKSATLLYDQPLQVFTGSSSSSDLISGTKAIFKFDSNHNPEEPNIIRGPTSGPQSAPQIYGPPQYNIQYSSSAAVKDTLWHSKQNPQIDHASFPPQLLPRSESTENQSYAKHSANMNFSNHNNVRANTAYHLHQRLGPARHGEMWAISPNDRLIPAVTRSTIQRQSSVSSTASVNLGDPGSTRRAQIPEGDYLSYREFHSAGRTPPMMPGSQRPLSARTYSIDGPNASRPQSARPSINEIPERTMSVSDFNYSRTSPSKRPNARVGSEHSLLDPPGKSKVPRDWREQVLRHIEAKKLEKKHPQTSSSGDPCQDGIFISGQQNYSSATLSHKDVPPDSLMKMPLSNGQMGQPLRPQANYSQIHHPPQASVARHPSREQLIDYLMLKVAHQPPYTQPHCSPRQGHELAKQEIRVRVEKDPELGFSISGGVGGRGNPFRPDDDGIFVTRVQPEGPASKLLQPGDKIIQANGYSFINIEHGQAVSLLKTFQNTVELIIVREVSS
UniProt Q9BTT6: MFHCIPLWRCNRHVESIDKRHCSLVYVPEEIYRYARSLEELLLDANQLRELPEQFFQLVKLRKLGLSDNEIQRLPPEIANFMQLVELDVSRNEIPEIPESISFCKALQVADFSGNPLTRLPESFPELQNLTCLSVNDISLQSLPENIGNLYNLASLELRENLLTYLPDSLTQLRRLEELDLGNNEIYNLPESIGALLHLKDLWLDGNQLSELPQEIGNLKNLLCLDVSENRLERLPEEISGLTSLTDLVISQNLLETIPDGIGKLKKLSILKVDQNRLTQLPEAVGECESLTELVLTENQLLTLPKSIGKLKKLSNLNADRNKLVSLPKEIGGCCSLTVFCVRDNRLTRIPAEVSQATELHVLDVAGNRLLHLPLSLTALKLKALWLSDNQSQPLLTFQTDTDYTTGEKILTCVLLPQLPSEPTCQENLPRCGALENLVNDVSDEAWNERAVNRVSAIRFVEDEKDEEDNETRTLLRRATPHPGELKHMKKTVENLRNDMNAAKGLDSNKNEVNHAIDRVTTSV

Experiment [1] addresses T1, GST-TMIGD1 cytoplasmic tail (AA 242-262) (human) (UniProt Q6UXZ0).
T1 sequence: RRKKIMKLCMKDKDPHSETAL
The experiment in a line: pull-down; 3 µg GST fusion protein immobilised on glutathione-Sepharose 4B; 10 µl of in vitro translated 35S-methionine-labelled Scrib construct; 2 h at 4 °C in 10 mM Hepes-NaOH pH 7.4, 100 mM KCl, 1 mM MgCl2, 0.1% Triton X-100; autoradiography; only the target purified.

The target in experiment [2] is T2, hTMIGD1 full length (AA 1-262) (human) (UniProt Q6UXZ0).
T2 sequence: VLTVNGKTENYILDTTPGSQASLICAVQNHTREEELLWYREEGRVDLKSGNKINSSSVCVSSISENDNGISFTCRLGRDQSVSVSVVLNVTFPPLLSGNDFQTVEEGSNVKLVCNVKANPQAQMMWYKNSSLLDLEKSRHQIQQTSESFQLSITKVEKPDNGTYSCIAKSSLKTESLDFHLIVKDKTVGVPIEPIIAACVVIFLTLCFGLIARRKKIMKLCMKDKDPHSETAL
The experiment can be described thus: co-IP; HEK293 cells stably transfected with TMIGD1 constructs, endogenous Scrib; IP with antibodies against TMIGD1 or against Scrib; lysis in 25 mM Tris-HCl pH 7.4, 1% NP-40, 150 mM NaCl, 5% glycerol; 4 h at 4 °C.

Experiment [3] deals with T3, hTMIGD1 lacking the PDZ domain binding motif (hTMIGD1/Δ5, AA 1-258) (human) (UniProt Q6UXZ0).
T3 sequence: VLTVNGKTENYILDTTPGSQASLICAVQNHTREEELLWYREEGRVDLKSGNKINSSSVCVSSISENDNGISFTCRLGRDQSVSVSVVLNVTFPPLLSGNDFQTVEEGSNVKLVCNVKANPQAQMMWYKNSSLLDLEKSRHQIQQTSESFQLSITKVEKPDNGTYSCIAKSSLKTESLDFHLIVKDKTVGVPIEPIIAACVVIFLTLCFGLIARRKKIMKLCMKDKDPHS
Described as above.

For experiment [4], the target named is T4, GST-TMIGD1/Δ5, cytoplasmic tail lacking the PDZ domain binding motif (AA 242-257) (human) (UniProt Q6UXZ0).
T4 sequence: RRKKIMKLCMKDKDPH
The experiment can be described thus: pull-down; 3 µg GST fusion protein immobilised on glutathione-Sepharose 4B; 10 µl of in vitro translated 35S-methionine-labelled Scrib construct; 2 h at 4 °C in 10 mM Hepes-NaOH pH 7.4, 100 mM KCl, 1 mM MgCl2, 0.1% Triton X-100; autoradiography; only the target purified.

In experiment [5] the target is T5, LexA fusion of the cytoplasmic tail of TMIGD1 (AA 241-262) (human) (UniProt Q6UXZ0).
T5 sequence: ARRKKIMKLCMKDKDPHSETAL
The experiment in a line: two-hybrid; S. cerevisiae L40; LexA-TMIGD1 cytoplasmic tail (AA 241-262) as bait; day 9.5/10.5 mouse embryo cDNA library; selection on SD-THULL with 1 mM 3-aminotriazole, 30 °C.

Experiment [6] has as its target T2, hTMIGD1 full length (AA 1-262) (human). The experiment can be described thus: co-IP; HEK293 cells stably transfected with TMIGD1 constructs and transiently transfected with Scrib constructs, Erbin or Lano/LRRC1; IP with anti-TMIGD1 antibodies; in one experiment with or without TAK-243; lysis in 25 mM Tris-HCl pH 7.4, 1% NP-40, 150 mM NaCl, 5% glycerol.
The target of experiment [7] is endogenous Scrib of HEK293 cells (human (endogenous in HEK293)) (UniProt Q14160). The experiment can be described thus: co-IP; HEK293 cells stably transfected with TMIGD1 constructs, endogenous Scrib; IP with antibodies against TMIGD1 or against Scrib; lysis in 25 mM Tris-HCl pH 7.4, 1% NP-40, 150 mM NaCl, 5% glycerol; 4 h at 4 °C.
The next experiment addresses T6, hScrib/PDZ1 (AA 728-815) (human, UniProt Q14160 728-815).
T6 construct: Scribble, human, PDZ1 domain, AA 728-815; In pGEX-6P-3 or pGIL-MBP; also called PDZ domain 1 of Scrib; source: E. coli BL21 (DE3) CodonPlus or pLysS, purified
The experiment in a line: ITC; peptide (900-1100 µM) titrated into PDZ domain (75 µM); 25 mM Tris-HCl pH 8.0, 150 mM NaCl, 5 mM TCEP; 25 °C; 20 injections; one-site binding model; both purified. (ITC needs no label: the signal is the heat of the interaction.)

For experiment [8], the target named is T7, hScrib/PDZ3 (AA 1005-1094) (human, UniProt Q14160 1005-1094).
T7 construct: Scribble, human, PDZ3 domain, AA 1005-1094; In pGEX-6P-3 or pGIL-MBP; source: E. coli BL21 (DE3) CodonPlus or pLysS, purified
T7 sequence (looked up): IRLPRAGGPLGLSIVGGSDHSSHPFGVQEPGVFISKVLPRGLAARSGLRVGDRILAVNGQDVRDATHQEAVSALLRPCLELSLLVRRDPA
Described as above.

For experiment [9], the target named is hScrib/PDZ2 (AA 833-965) (human) (UniProt Q14160). The experiment is described as above.
The target in experiment [10] is hScrib/PDZ4 (AA 1099-1203) (human) (UniProt Q14160). The experiment is described as above.

These are yes or no findings as the source states them, for the method shown. For some assays here: In cells and extracts the contact can be indirect. Some entries that bind do so weakly or less than the wild type. For some assays here: Sequences can lack the tags named with a protein.

For the molecule “hScrib/PDZ-mut4 (AA 616-1490_L1111AG1112E) (from UniProt Q14160 616-1490) (domain or fragment)”, the binding result in [1] was “binds”.

Regarding “endogenous Scrib of HEK293 cells (from UniProt Q14160 1-1655)”, the binding result in experiment [2] was “binds weakly”; in [3] it was “no binding”. “hScrib/PDZ-WT (AA 616-1490) (from UniProt Q14160 616-1490) (domain or fragment)”: the binding result is given as “binds” in experiment [1] and “no binding” in [4].

For the molecule “murine Scrib, region AA 633-836 (overlapping yeast two-hybrid library clones) (from UniProt Q80U72 633-836) (domain or fragment)”, the binding entry in experiment [5] was “binds”. As to “hScrib/LRR (AA 2-727) (from UniProt Q14160 2-727) (domain or fragment)”, in experiment [6], the binding entry is reported as “no binding”. For “hErbin/WT (AA 1-1412) (from UniProt Q96RT1 1-1412)”, the binding entry in experiment [6] is given as “no binding”. Take “hLano/WT (AA 1-524) (from UniProt Q9BTT6 1-524)”: the binding entry in experiment [6] is “no binding”.

B1: hTMIGD1 lacking the PDZ domain binding motif (hTMIGD1/Δ5, AA 1-258) (receptor, UniProt Q6UXZ0 30-258)
chain: T3 sequence
B1: in experiment [7], the binding entry was “no binding”. As for DPHSEAAA [mutant TMIGD1 peptide (DPHSEAAA)], the binding result was “no binding (tested: domain 75 µM, peptide 900-1100 µM)” with hScrib/PDZ1 (AA 728-815); “no binding (tested: domain 75 µM, peptide 900-1100 µM)” in [8]; “no binding (tested: domain 75 µM, peptide 900-1100 µM)” in [9]; “no binding (tested: domain 75 µM, peptide 900-1100 µM)” in [10].

B2: hTMIGD1 full length (AA 1-262) (receptor, UniProt Q6UXZ0 30-262)
chain: T2 sequence
As for B2, the binding entry in experiment [7] is given as “binds weakly”.

B3: C-terminally derived 8-mer human TMIGD1 peptide (DPHSETAL) (peptide)
peptide: DPHSETAL
notes: TMIGD1, human, the eight C-terminal residues with the PBM (SETAL), free C-terminal carboxyl; also called TMIGD1/WT; TMIGD1 PBM peptide; source: synthetic peptide (Genscript)
As for B3, the binding result in experiment [9] is recorded as “no binding (tested: domain 75 µM, peptide 900-1100 µM)”; in [10] it was “no binding (tested: domain 75 µM, peptide 900-1100 µM)”.
